Results as given in PubChem BioAssay AID2147 (National Center for Advancing Translational Sciences (NCATS), 2009).
The campaign covered roughly 230,000 compounds. About 3,600 (1.6%) were called active. The inconclusive results got no clear call from the source; some entries with a clear call stand among them for comparison. Calls follow the shape of the dose curve; as a rule, active = well fitted inhibition curve with a large enough effect (not every such curve was filed as active); inconclusive = small, poorly fitted or top-dose-only effect, or another doubt; inactive = no such curve, though single readings can be large or run the other way. Where the call is inconclusive, the potency comes from a doubtful curve fit.

biological target: Lysine-specific demethylase 4E (Homo sapiens) (UniProt B2RXH2); experiment: qHTS Assay for Inhibitors of Human Jumonji Domain Containing 2E (JMJD2E); details: JMJD2E catalytic domain, FDH-coupled NADH fluorescence (FDH is formaldehyde dehydrogenase); series mostly up to 57.1 µM
Also: nearly all actives have a fitted effect of over 50% in size.
Potency is read from the fitted curve at half-maximal effect; tags tell the direction and shape of the fitted curve.

Chain of UniProt B2RXH2 (B2RXH2 whole entry, looked up, the tested form may be a part): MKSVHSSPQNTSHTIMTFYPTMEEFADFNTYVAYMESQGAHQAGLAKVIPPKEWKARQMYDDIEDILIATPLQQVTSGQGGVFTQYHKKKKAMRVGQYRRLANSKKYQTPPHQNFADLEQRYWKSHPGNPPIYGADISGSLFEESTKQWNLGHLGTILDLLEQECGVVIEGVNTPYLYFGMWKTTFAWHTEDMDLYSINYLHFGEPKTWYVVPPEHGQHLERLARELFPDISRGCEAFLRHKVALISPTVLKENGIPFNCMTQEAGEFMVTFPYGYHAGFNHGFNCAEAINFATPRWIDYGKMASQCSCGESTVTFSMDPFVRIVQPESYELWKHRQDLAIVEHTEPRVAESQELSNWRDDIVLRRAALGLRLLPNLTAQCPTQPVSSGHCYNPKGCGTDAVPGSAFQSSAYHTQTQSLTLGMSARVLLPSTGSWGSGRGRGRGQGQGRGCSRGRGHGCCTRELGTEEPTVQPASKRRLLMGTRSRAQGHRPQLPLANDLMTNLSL

| Structure (SMILES) | Potency |
| --- | --- |
| C=CCN1C=CC(=C/C=C(/C#N)C(=O)OCC)C=C1 | inconclusive: 28.2 µM [inhibitor, single point] |
| Cc1ccc(S(=O)(=O)N2CCCCC2C(=O)Nc2nncs2)cc1 (stereo unspecified) | inconclusive: 14.1 µM [inhibitor, partial curve, poor fit] |
| Cc1ccc(NC(=O)c2cccc(S(=O)(=O)N(C)c3ccccc3)c2)cc1S(=O)(=O)N1CCOCC1 | inconclusive: 35.5 µM [inhibitor, single point] |
| COc1ccc(-c2c3c(=O)n(C)c(=O)n(C)c3cn2-c2ccc(O)cc2)cc1 | inconclusive: 14.1 µM [inhibitor, partial curve] |
| CCCCC[C@H](O)/C=C/C=C\C=C\C=C\[C@@H](O)[C@@H](O)CCCC(=O)O | inactive |
| N#Cc1nc(-c2ccc(OCc3ccc(Cl)cc3)cc2)oc1NCc1cccnc1 | inconclusive: 5.01 µM [inhibitor, single point] |
| NS(=O)(=O)c1cccc(NC(=S)NC(=O)C23CC4CC(CC(C4)C2)C3)c1 | inactive |
| CN(C)CCOc1nc(-c2ccccc2)nc2c1oc1ccccc12 | inactive |
| Cc1cc(/C=C2/C(=O)NN(c3ccccc3)C2=O)c(C)n1-c1cccc(O)c1 | inconclusive: 28.2 µM [inhibitor, single point] |
| CN1CCCC1CCNS(=O)(=O)c1ccc(Br)cc1 (stereo unspecified) | inactive |
| N#CC1=C(N)Oc2cc(O)c(C=Nc3ccccc3)cc2C1c1ccccc1 (stereo unspecified) | inconclusive: 39.8 µM [inhibitor, single point] |
| Cc1cc(N2CCOCC2)nc2ccc(NC(=O)C3CCC(C)CC3)cc12 (stereo unspecified) | inconclusive: 4.47 µM [inhibitor, full curve] |
| O=C(Nc1ccc2nn(-c3ccc(F)cc3)nc2c1)c1cccnc1 | inconclusive: 28.2 µM [inhibitor, single point] |
| COc1cc2c(cc1NC(=O)COC(=O)Cn1cnc3ccccc31)oc1ccccc12 | inconclusive: 35.5 µM [inhibitor, single point] |
| CCn1nc(C)cc1-c1nnc(SCC(=O)Nc2ccccc2)n1CCCOC | inactive |
| COc1ccc(NC2c3ccccc3C(=O)N2c2ccccn2)cc1 (stereo unspecified) | inconclusive: 39.8 µM [inhibitor, single point] |
| COc1ccc(C(=O)c2c[nH]c(C(=O)N=CN(C)C)c2)cc1 | inactive |
| CCOC(=O)c1cc(NC(=O)Nc2ccccn2)c(C)nc1C | inactive |
| CCOC(=O)c1[nH]c2ccccc2c1NC(=O)C(CC)CC | inconclusive: 20 µM [inhibitor, partial curve] |
| CCN(CC)CCCN(Cc1cc2cc(OC)ccc2[nH]c1=O)C(=O)Nc1ccc(F)cc1 | inconclusive: 22.4 µM [inhibitor, partial curve] |
| c1csc(-c2nnc3ccccn23)c1 | inconclusive: 25.1 µM [inhibitor, partial curve] |
| CC1CCCCC1NC(=O)COC(=O)c1c2c(nc3ccccc13)/C(=C/c1ccco1)CC2 (stereo unspecified) | active: 15.8 µM |
| CCCC(=O)NCCc1cc2ccc(OC)cc2[nH]c1=O | inconclusive: 28.2 µM [inhibitor, single point] |

| Structure (SMILES) | Potency |
| --- | --- |
| COc1cc(C(=O)NNC(=O)NC2CCCCC2)cc(OC)c1OC | inactive |
| CCCC(C)C(=O)Nc1nc(C)c(-c2csc(Nc3ccccc3OC)n2)s1 (stereo unspecified) | inconclusive: 22.4 µM [inhibitor, single point] |
| Cc1ccc(S(=O)(=O)/C(C#N)=C/c2c(N3CCCCC3)nc3ccccn3c2=O)cc1 | inactive |
| CCOc1ccc(C(=O)c2ccc(O)c(O)c2O)cc1 | active: 14.1 µM |
| Cc1cc(SCC(=O)c2ccc(O)c(O)c2)n2nc(C)c(-c3ccccc3)c2n1 | inconclusive: 31.6 µM [inhibitor, single point] |
| CC(=O)CC(=O)Nc1ccc(C(N)=O)cc1 | inconclusive: 31.6 µM [inhibitor, single point] |
| CCSc1nc(C)nc2sc(C)c(C)c12 | inactive |
| COc1ccc(Nc2nc(-c3cccs3)cs2)c(OC)c1 | inconclusive: 28.2 µM [inhibitor, single point] |
| CCOc1ccc(N=C2NC(=O)S/C2=C\c2ccc(N(C)C)cc2)cc1 | inactive |
| Cc1ccc(/C=C/c2nnc(-c3ccc(C)cc3)o2)cc1 | inconclusive: 8.91 µM [inhibitor, partial curve] |
| COc1cccc2cc(C(=O)N3CCc4ccccc4C3)c(=O)oc12 | inactive |
| CC(=O)Nc1ccc(Nc2cc(C)nc3c(-c4ccc(Cl)cc4)c(C)nn23)cc1 | inconclusive: 31.6 µM [inhibitor, partial curve] |
| c1ccc(-c2ncnc3cc4n(c23)CCC4)cc1 | inconclusive: 28.2 µM [inhibitor, partial curve] |
| COC(=O)[C@H](CC(C)C)NC(=O)NC1CCCCC1C (stereo partly specified) | inactive |
| CCOC(=O)c1c(C)[nH]c(N=Nc2cccc(OC)c2)c1C | inactive |
| Cc1cc(-n2c(=O)c(C#N)cc3c(=O)n4ccccc4nc32)no1 | inconclusive: 7.08 µM [inhibitor, partial curve] |
| COc1ccccc1CNc1ncnc2ccc(-c3cccnc3)cc12 | inconclusive: 35.5 µM [inhibitor, single point] |
| CCOC(=O)C(Cc1c(F)cccc1Cl)c1ccnc2nc(N)nn12 (stereo unspecified) | inconclusive: 31.6 µM [inhibitor, partial curve] |
| CCCCC1=CC2=CC(=O)C(C)(OC(=O)CC)C(=O)C2=CN1CCc1ccccn1 (stereo unspecified) | inconclusive: 31.6 µM [inhibitor, single point] |
| N#C/C(=C\c1ccc(-c2ccc(C(=O)O)cc2)o1)C(=O)NCC1CCCO1 (stereo unspecified) | inconclusive: 35.5 µM [inhibitor, single point] |
| Cc1ccn2c(Nc3ccc4c(c3)OCO4)c(-c3ccc(O)cc3)nc2c1 | inconclusive: 31.6 µM [inhibitor, partial curve] |
| CC1CCN(c2oc(-c3ccccc3F)nc2C#N)CC1 | inconclusive: 31.6 µM [inhibitor, partial curve] |
| O=C(NCc1ccco1)c1cc(-c2ccc3c(c2)OCO3)on1 | inconclusive: 35.5 µM [inhibitor, partial curve] |
